# Assay results taken from patent US20240034784A1 (published 2024).
# Substitutions are numbered along the chain they refer to.
# B1: sdab-32-hIgG1Fc (Fc fusion)
# chain: QVKLEESGGGLVQAGGSLRLSCAIPGSIVGSTYMGWFRQAPGKQRELVARIAGGGQINYADSVKGRFTISRDNAKNSLYLQMNSLTPEDTAVYYCYVHYWMDYWGQGTQVTVSS[sequence of human IgG1 Fc with C220G (EU numbers) omitted]
# B2: sdab-4-hIgG1Fc (Fc fusion)
# chain: QVQLVESGGGLVQPGGSLRLSCAASGSIFQINTMGWYRQAPGKQRELVAAITTGGSTKYSDSVKGRFTISRDNAKNTVYLQMNSLKPEDTAVYYCNADLKTNSNVFTWYEYWGQGTQVTVSS[sequence of human IgG1 Fc with C220G (EU numbers) omitted]
# B3: sdab-2-hIgG1Fc (Fc fusion)
# chain: QVKLEESGGGLVQAGGSLRLSCAASVEIFMMGWYRQAPGKQRELVATISSSGRTNYADSVKGRFTISGDNSKNTVYLQMNSLKPEDTAVYYCYCHYWRDYWGRGTQVTVSS[sequence of human IgG1 Fc with C220G (EU numbers) omitted]
# B4: sdab-33-hIgG1Fc (Fc fusion)
# chain: QVKLEESGGGLVQAGGSLRLSCAASGSIYRINNMAWYRQAPGKQRELVAEITNSGNTLYTDSVKGRFTISMDGAKNAVYLQMNSLKPEDTAVYSCNAFIIPSVGVFTSRAYWGRGTQVTVSS[sequence of human IgG1 Fc with C220G (EU numbers) omitted]
# B5: sdab-35-hIgG1Fc (Fc fusion)
# chain: AVQLVESGGGLVQAGGSLRLSCVASGSIFQINTMGWYRQAPGKQREWVTGITTGGTTRYADSVKGRFTISRDNAKNTVYLQMNSLKPEDTAVYYCNSDLKTTSNVFQWYEYWGQGTQVTVSA[sequence of human IgG1 Fc with C220G (EU numbers) omitted]
# B6: sdab-13-hIgG1Fc (Fc fusion)
# chain: AVQLVESGGGLAQAGGSLRLSCAASGRILNMASMAWFRQTPGKQRESVALITFGGTTNYADSVKGRFTISRDNAKNTVYLQMNDLKSEDTAVYYCNADVVTGLMRRDVYWGQGTQVIVSS[sequence of human IgG1 Fc with C220G (EU numbers) omitted]
# B7: sdab-18-hIgG1Fc (Fc fusion)
# chain: AVQLVESGGGLVQAGGSLRLSCAASGSIFMINAMGWYRQAPGKQRELVADISRGGSTYYADSVKGRFTISRDNDKNTVSLQMNSLKPEDTAAYYCHAHDVPPFVPGGKSYWGQGTQVTVSS[sequence of human IgG1 Fc with C220G (EU numbers) omitted]
# B8: sdab-29-hIgG1Fc (Fc fusion)
# chain: B4 chain with A40I, N53S, T60A, G73N, A77T, V78A, T107I, A110T, Y111F
# B9: sdab-34-hIgG1Fc (Fc fusion)
# chain: QVKLEESGGGLVQTGGSLSLSCVASGSGISINTMGWYRQGPGKQRELVAIVGKYGETNYADSVKGRFTISRDDAKKTVYLRMNSLKPEDTAVYYCNADVLAAGWWSGRVLWGQGTQVTVSS[sequence of human IgG1 Fc with C220G (EU numbers) omitted]
# B10: sdab-9-hIgG1Fc (Fc fusion)
# chain: DVQLVESGGGLVQAGGSLTLSCAASRSDLFISIMGWYRQAPGKQRELVADISRGGKTNYADAVKARATISRDNAKNTMYLQMNNVKPEDTAVYYCYAQISNPFWGDYWGRGTQVTVSS[sequence of human IgG1 Fc with C220G (EU numbers) omitted]
# B11: CLDN18.2-vhh50-2.1 (Fc fusion)
# chain: EVQLVESGGGLVQPGGSLRLSCAASGSIYRINAMAWYRQAPGKGREYVSEITSTGNTDYADSVKGRFTISRDNSKNTLYLQMNSLRAEDTAVYYCAAFIIPSVGMFTSRTYWGQGTLVTVSS[sequence of human IgG1 Fc with C220G (EU numbers) omitted]
# B12: CLDN18.2-vhh42-2.2 (Fc fusion)
# chain: QVQLVESGGGVVQPGGSLRLSCAASGFTFSTYDTNWYRQAPGKGREFVAFINYRGGGATYADSVKDRFTISRDNSKNTLYLQMNSLRAEDTAVYYCAAHERFPMGRPPYDYWGQGTLVTVSS[sequence of human IgG1 Fc with C220G (EU numbers) omitted]
# B13: CLDN18.2-vhh29-2.1 (Fc fusion)
# chain: QVQLVESGGGLVKPGGSLRLSCAASGSIYRINNMAWYRQAPGKGRELVSEITSSGNTLYADSVKGRFTISRDNAKNSLYLQMNSLRAEDTAVYYCAAFIIPSVGVFISRTFWGQGTLVTVSS[sequence of human IgG1 Fc with C220G (EU numbers) omitted]
# B14: CLDN18.2-vhh25-1.1 (Fc fusion)
# chain: B11 chain with A33N, Y47L, I51S, T54G, T57F, D58I, M105V, T107A
# B15: CLDN18.2-vhh42-1.1 (Fc fusion)
# chain: B12 chain with F27R, T28A, F29I, S30G
# B16: CLDN18.2-vhh29-2.3 (Fc fusion)
# chain: B13 chain with L47W
# B17: CLDN18.2-vhh29-1.1 (Fc fusion)
# chain: B13 chain with Q1E, V12I, K13Q, A74S, S77T, L117T
# B18: CLDN18.2-vhh29-3.1 (Fc fusion)
# chain: B13 chain with Q1E, K13Q, A74S, S77T
# B19: CLDN18.2-vhh50-1.1 (Fc fusion)
# chain: B11 chain
# B20: CLDN18.2-vhh25-2.1 (Fc fusion)
# chain: B11 chain with A33N, Y47L, I51S, T54G, T57F, D58I, M105V, T107A
# B21: CLDN18.2-vhh32-1.2 (Fc fusion)
# chain: EVQLVESGGGLVQPGGSLRLSCAASGFTVSSTYMGWFRQAPGKGRELVSRIAGGGQINYADSVKGRFTISRDNSKNTLYLQMNSLRAEDTAVYYCAAHYWMDYWGQGTLVTVSS[sequence of human IgG1 Fc with C220G (EU numbers) omitted]
# B22: CLDN18.2-vhh50-2.3 (Fc fusion)
# chain: B11 chain with Y47W
# B23: CLDN18.2-vhh09-1.3 (Fc fusion)
# chain: EVQLVESGGGLVQPGGSLRLSCAASRSDLFISIMGWYRQAPGKGREWVSDISRGGKTNYADAVKARFTISRDNSKNTLYLQMNSLRAEDTAVYYCAAQISNPFWGDYWGQGTLVTVSS[sequence of human IgG1 Fc with C220G (EU numbers) omitted]
# B24: sdab-49-hIgG1Fc (Fc fusion)
# chain: QVQLVESGGDLVQAGGSLRLSCAASGSPFGFVVMGWHRQAPGKQRELVAMLTSSGTTNYADSVKGRFTLSRENTKNTVHLQMNKLKPEDTAVYYCRAVLRSGSDWRAAANEYWGQGTHVTVSS[sequence of human IgG1 Fc with C220G (EU numbers) omitted]
# B25: sdab-39-hIgG1Fc (Fc fusion)
# chain: QVKLEESGGGLAEAGGSLRLSCVASGSIFMIVTMGWYRQAPGKQRELVASITRGGSTNYADFVKGRFTISRDNAKNTVYLQMNSLKPEDTAVYFCNADDVPPLTLTRVIYWGQGTQVTVSS[sequence of human IgG1 Fc with C220G (EU numbers) omitted]
# B26: sdab-47-hIgG1Fc (Fc fusion)
# chain: QVKLEESGGGLVQAGGSLRLSCAVSGNFLNIVTMGWYRQAPGKQRELVATTTRGGTTNYSDSVKGRFTISRDNAKNTVYLQMNSLKPEDTAVYYCNADIIPGFLQQLTVHWGQGAQVTVSS[sequence of human IgG1 Fc with C220G (EU numbers) omitted]
# B27: sdab-41-hIgG1Fc (Fc fusion)
# chain: QVQLVESGGDLVQAGGSLRLSCAASGSPFGFVVMGWYRQAPGKQRDMVATLTSSGATTYADSVKGRFTLSRENAKNTIHLQMNSLKPEDTAVYYCRAVLRSGDNWMAAANEYWGQGTHVTVSS[sequence of human IgG1 Fc with C220G (EU numbers) omitted]
# B28: sdab-48-hIgG1Fc (Fc fusion)
# chain: QVKLEESGGGLVQAGGSLGLSCAASGTILHVMVMGWYRQAPGKQRELVATQTIGGTTNYADSVKGRFTISRDNAKNTVYLQMNTLTPGDTAVYYCNADVVYGLARSGNYWGPGTQVTVSS[sequence of human IgG1 Fc with C220G (EU numbers) omitted]
# Biological target: T1, human Claudin 18.2 (human, UniProt P56856 1-261)
# Experiment: FACS
row,Binder,EC50 [nM]
1,B1,3.04
2,B2,6.79
3,B3,4.19
4,B4,3.81
5,B5,4.66
6,B6,5.41
7,B7,4.18
8,B8,1.46
9,B9,4.37
10,B10,1.76

# Biological target: T1, human Claudin 18.2
# Experiment: FACS
# Remark: another data set of the same source
row,Binder,EC50 [nM]
1,B11,3.13
2,B12,1.96
3,B13,2.73
4,B14,2.28
5,B15,3.79
6,B16,1.8
7,B17,2.05
8,B18,1.75
9,B19,2.41
10,B20,3.3
11,B21,2.63
12,B22,3.78
13,B23,4.71

# Biological target: T1, human Claudin 18.2
# Experiment: FACS
# Remark: another data set of the same source
row,Binder,EC50 [nM]
1,B24,10.6
2,B25,1.38
3,B26,2.06
4,B27,3.66
5,B28,2.97

# Biological target: T1, human Claudin 18.2
# Experiment: FACS
# Remark: another data set of the same source
row,Binder,EC50 [nM]
1,B1,3.39
2,B2,5.94
3,B3,3.88
4,B4,4.41
5,B5,4.73
6,B6,4.02
7,B7,3.6
8,B8,1.08
9,B9,5.22
10,B10,2.72
